Measurements taken from PubChem BioAssay AID1347055 (National Center for Advancing Translational Sciences (NCATS), 2019).
Screen size: about 54,000 compounds; about 120 (0.22%) were called active. Inconclusive results, whose numbers are uncertain, are shown with a selection of clear calls. Calls come from the whole dose curve; as a rule, active = well fitted inhibition curve with a large enough effect; inconclusive = small, poorly fitted or top-dose-only effect, or effect the other way; inactive = flat fitted curve, though single readings scatter. Potencies of inconclusive entries are left out as doubtful fits.

The molecules below were run against Fumarate hydratase, mitochondrial (Homo sapiens) (UniProt P07954) (assay: Identification of activators of human fumarate hydratase by quantitative high-throughput screening). Conditions: FH coupled MDH/diaphorase resazurin fluorescence, 15 min; activity change, negative = inhibition: at 79.9 µM (top of the series).
Sequence of UniProt P07954 (P07954 whole entry, looked up): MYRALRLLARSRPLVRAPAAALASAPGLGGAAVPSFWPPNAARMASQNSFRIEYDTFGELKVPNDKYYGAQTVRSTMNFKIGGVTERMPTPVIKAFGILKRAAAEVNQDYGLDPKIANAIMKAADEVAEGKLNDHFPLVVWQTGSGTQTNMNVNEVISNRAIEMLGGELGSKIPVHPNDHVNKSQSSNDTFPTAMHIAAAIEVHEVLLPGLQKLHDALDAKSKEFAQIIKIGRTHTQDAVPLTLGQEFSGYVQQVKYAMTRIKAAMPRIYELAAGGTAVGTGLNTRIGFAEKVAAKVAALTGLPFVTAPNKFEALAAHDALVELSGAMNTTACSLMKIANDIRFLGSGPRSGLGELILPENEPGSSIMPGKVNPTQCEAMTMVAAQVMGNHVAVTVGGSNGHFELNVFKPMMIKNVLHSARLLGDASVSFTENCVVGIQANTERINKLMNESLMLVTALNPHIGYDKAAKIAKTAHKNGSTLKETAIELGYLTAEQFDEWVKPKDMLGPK
% is set by controls: 0 for no effect and ±100 for the full control effect; potency is the fitted concentration of half-maximal effect; tags give direction and shape of the fitted curve.
Note: the screen sought activators but most active calls are inhibition curves; nearly all actives have a fitted effect of over 45% in size.

| SMILES | Potency | activity change, negative = inhibition |
| --- | --- | --- |
| O=c1[nH]ccc2nc(-c3ccc(CN4CCC(c5nc(-c6ccccn6)n[nH]5)CC4)cc3)c(-c3ccccc3)cc12 | inconclusive [activator, full curve] |  |
| COc1ccc(N2CCN(CC(O)COc3ccccc3C(C)(C)C)CC2)cc1 (centres undefined) | inconclusive [inhibitor, single point] |  |
| Cc1ccc(OCC(=O)Nc2ccc3nc(SCc4ccccc4)sc3c2)cc1 | inactive |  |
| COc1ccc(CCNC(=O)CCc2c(C)nc3cc(-c4ccccc4)nn3c2C)cc1OC | inactive |  |
| Cc1ccc(C)c(NC(=O)N2CC=C(c3c[nH]c4ccccc34)CC2)c1 | inconclusive [inhibitor, partial curve, poor fit] |  |
| Cc1ccc(NC(=O)COc2ccc3oc4c(c3c2)CCCC4)c(C)c1 | inactive |  |
| Cc1cccc(NC(=O)CSc2nnc(-c3cccs3)o2)c1 | inactive |  |
| COc1ccccc1N1CCN(C(=O)CCn2cnc3onc(-c4ccc(F)cc4)c3c2=O)CC1 | inconclusive [inhibitor, partial curve, poor fit] |  |
| CC1(C(=O)O)CCCC2(C)C3CC4C5CC3(CCC12)CC45C (centres undefined) | inconclusive [inhibitor, single point] |  |
| COC(=O)c1ccc(Cn2c(=O)cc(C)c3c(C)nn(C)c32)cc1 | inconclusive [inhibitor, single point] |  |
| Cc1cc(=O)[nH]c2nnc(SCC(=O)Nc3cc(C(F)(F)F)ccc3Cl)n12 | inactive |  |
| Cc1ccc2c(CNCc3cccs3)c(C(=O)O)n(Cc3ccc(F)cc3)c2c1 | inconclusive [inhibitor, partial curve, poor fit] |  |
| COc1ccc(C(=O)NCC(c2ccco2)S(=O)(=O)c2ccccc2)cc1 (centres undefined) | inactive |  |
| CCOc1ccc(-c2csc3ncnc(Nc4cccc(O)c4)c23)cc1 | inconclusive [inhibitor, single point] |  |
| CCOc1ccc(CCNC(=O)C2CCCN(c3nnc(C)c4c(C)n(-c5ccccc5)nc34)C2)cc1 (centres undefined) | inconclusive [inhibitor, partial curve, poor fit] |  |
| CCN(CC)CCCNC(=O)c1ccc(-c2nc(CN3CCc4ccccc43)c(C)o2)cc1 | inactive |  |
| CCC(C(=O)Nc1cc(OC)cc(OC)c1)n1nc(-c2ccc(C)c(C)c2)ccc1=O (centres undefined) | inconclusive [inhibitor, single point] |  |
| CN1CCc2c(sc3c2C(=O)NC(c2ccc(OC(=O)c4ccc(C(C)(C)C)cc4)cc2)N3)C1 (centres undefined) | inconclusive [inhibitor, partial curve, poor fit] |  |
| CC(=O)O[C@@H]1C[C@@]23C[C@@]24CC[C@H](O[C@@H]2OC[C@H](O)[C@H](O)[C@H]2O)C(C)(C)[C@@H]4CC[C@H]3[C@]2(C)[C@@H](O)C34O[C@H](C[C@@H](C)[C@@H]3[C@@]12C)[C@@H](C(C)(C)O)O4 | inactive |  |
| O=C(CCC1N=C2c3ccccc3N=C(SCc3ccc(F)cc3)N2C1=O)NCc1ccc(F)cc1 (centres undefined) | inconclusive [inhibitor, single point] |  |

| SMILES | Potency | activity change, negative = inhibition |
| --- | --- | --- |
| COc1ccc(-c2cc3nc(C)c(CCC(=O)Nc4ccccc4C(C)=O)c(C)n3n2)c(OC)c1 | inactive |  |
| c1ccc(Nc2c(-c3c[nH]c4ccccc34)nc3ccccn23)cc1 | inconclusive [inhibitor, partial curve] |  |
| COCCCNC(=O)c1c(NC(=O)Cc2coc3cc(C)cc(C)c23)sc2c1CCCC2 | inconclusive [inhibitor, partial curve, poor fit] |  |
| CCN(CCCNC(=O)c1cc2c(=O)n(CC)c3ccccc3c2s1)c1ccccc1 | inconclusive [inhibitor, single point] |  |
| COc1ccc(C(C)C)cc1S(=O)(=O)NCCc1c(C)[nH]c2ccc(C)cc12 | inconclusive [inhibitor, single point] |  |
| COc1ccc(N2CCN(C(=O)c3ccc(-c4nc(COc5ccccc5)c(C)o4)cc3)CC2)cc1 | inconclusive [inhibitor, full curve, poor fit] |  |
| CCC(Sc1nncn2c1cc1occc12)C(=O)Nc1ccc(C)c(Cl)c1 (centres undefined) | inconclusive [inhibitor, partial curve] |  |
| Cc1ccc(C(=O)NCC(c2cccs2)S(=O)(=O)c2cccs2)cc1 (centres undefined) | inconclusive [inhibitor, partial curve, poor fit] |  |
| CN(CC(=O)Nc1cccc(C(F)(F)F)c1)S(=O)(=O)c1ccc2[nH]c3c(c2c1)CCCC3 | inconclusive [inhibitor, single point] |  |
| Cc1ccc(-n2ncc(C(=O)NCCN3CCc4ccccc4C3)c2C2CCN(C(=O)OC(C)(C)C)CC2)cc1 | inconclusive [inhibitor, partial curve] |  |
| CCN(CC)C(=O)c1sc2c(c1C)c(=O)n(-c1ccc(Cl)c(Cl)c1)c(=O)n2Cc1cc(=O)n2c(C)cccc2n1 | inconclusive [inhibitor, partial curve, poor fit] |  |
| Cc1ccc(-c2nc(C)c(CCNS(=O)(=O)c3ccccc3F)s2)cc1 | inconclusive [inhibitor, partial curve] |  |
| CCN(CC)c1ccc(NC(=O)CCc2c(C)nc3ncnn3c2C)c(C)c1 | inactive |  |
| O=S(=O)(NCCc1csc2nc(-c3ccccc3)nn12)c1ccc(Oc2ccccc2)cc1 | inconclusive [inhibitor, partial curve, poor fit] |  |
| COc1ccc(NS(=O)(=O)c2ccc3c(c2)[C@H]2C=CC[C@H]2[C@@H](c2ccc(C(=O)O)cc2)N3)cc1 | active: 35.5 µM |  |
| Cc1cc(S(=O)(=O)Nc2ccc3oc4c(c3c2)CCCC4)ccc1Cl | inconclusive [inhibitor, partial curve] |  |
| O=S(=O)(NCc1ccc(F)cc1)c1ccc2[nH]c3c(c2c1)CCCC3 | inconclusive [inhibitor, single point] |  |
| Cc1ccc(NC(=O)c2cnc3cc(C)ccn3c2=O)c(C)c1 | inactive |  |
| COc1cccc(CC(=O)Nc2ccc3nc(Nc4cccc(C(F)(F)F)c4)cc(C)c3c2)c1 | inconclusive [inhibitor, partial curve, poor fit] |  |
| CCOc1ccc(CCNC(=O)c2nn(C)c3c2CSc2ccc(C)cc2-3)cc1OCC | inconclusive [inhibitor, partial curve, poor fit] |  |

| SMILES | Potency | activity change, negative = inhibition |
| --- | --- | --- |
| Cc1ccccc1Nc1c(-c2c[nH]c3ccccc23)nc2cccc(C)n12 | inconclusive [inhibitor, full curve, poor fit] |  |
| CCOC(=O)c1ccc(NC(=O)CSc2ncc(S(=O)(=O)c3ccc(C)c(Cl)c3)c(=O)[nH]2)cc1 | inconclusive [inhibitor, partial curve] |  |
| CCc1ccc2nc(N3CCC(C(=O)NCCC(C)C)CC3)sc2c1 | inactive |  |
| Cc1cc(S(=O)(=O)NCCc2csc(-c3cccc(F)c3)n2)ccc1F | inconclusive [inhibitor, partial curve] |  |
| COc1cc(O)c2c(c1)C1OC1C[C@H](O)[C@H](O)C(=O)/C=C\C[C@H](C)OC2=O (some centres undefined) | inactive |  |
| COC(=O)c1cccc(CN2C(=O)SC(Nc3ccccc3C)C2=O)c1 (centres undefined) | inconclusive [inhibitor, single point] |  |
| Cn1c(=O)n(C)c2cc(N3CCOCC3)c(NS(=O)(=O)c3ccc(F)cc3)cc21 | inconclusive [inhibitor, partial curve, poor fit] |  |
| O=C1CN(C(=O)c2c(F)cccc2Cl)C(c2ccc(F)cc2)c2cc(Br)ccc2N1 (centres undefined) | inconclusive [inhibitor, partial curve, poor fit] |  |
| CCCN1C(=O)c2[nH]nc(-c3ccc(OC)cc3)c2C1c1ccccn1 (centres undefined) | inconclusive [inhibitor, partial curve] |  |
| C=CC(=O)Nc1cccc(Oc2nc(Nc3ccc(N4CCN(C)CC4)cc3OC)ncc2Cl)c1 | inconclusive [inhibitor, partial curve] |  |
| CC(C)c1ccc(C(=O)CC2(O)C(=O)N(CCc3ccccc3)c3ccc(Cl)cc32)cc1 (centres undefined) | inconclusive [inhibitor, partial curve, poor fit] |  |
| O=C(/C=C/c1ccc(O)c(O)c1)OCCc1ccccc1 | inconclusive [inhibitor, partial curve, poor fit] |  |
| O=C(CSc1nnc2[nH]c(=O)cc(-c3ccccc3)n12)Nc1ccccc1C(F)(F)F | inactive |  |
| CCc1ccc(NC(=O)CSC2=Nc3ccccc3C3=NC(CC(=O)NCc4cccs4)C(=O)N23)cc1 (centres undefined) |  | inconclusive: -30.4% [inhibitor] |
| CC1CCC(=O)CC(SCC(O)C(=O)O)CCC(=O)O1 (centres undefined) |  | inconclusive: 31.3% [activator] |
| CCN(CC)c1ccc(NC(=O)c2cnn3c(C(F)F)cc(-c4ccccc4)nc23)cc1 | inconclusive [inhibitor, partial curve, poor fit] |  |
| CCOc1ccc(-c2cnc(NCc3cccc(Cl)c3)n2C)cc1 | inconclusive [inhibitor, single point] |  |
| N=c1c[n+](N2CCOCC2)[n-]o1 | inconclusive [inhibitor, single point] |  |
| CC(=O)c1ccc(NS(=O)(=O)c2ccc3[nH]c4c(c3c2)CCCCCC4)cc1 | inconclusive [inhibitor, partial curve] |  |
